This note sets out measurements from ChEMBL document CHEMBL4888484, “Replenishing the malaria drug discovery pipeline: Screening and hit evaluation of the MMV Hit Generation Library 1 (HGL1) against asexual blood stage Plasmodium falciparum ,using a nano luciferase reporter read-out” (2022).

Among all 150,000 compounds or so, about 540 (0.36%) showed an effect of 50% or more. This is one part of the list.

The assay relates to Plasmodium falciparum. As to the kind of experiment: Primary screen in NF54 nanoGlo assay, in single point, at 2uM, 72h; a lower Z score goes with more inhibition. Format: functional, Erythrocyte. Particulars: timepoint 72 hour.
For the compound `O=C(c1ccsc1)N1CCC[C@H]1c1n[nH]c2c1COCC2`, the % Inhibition (as a rule, the change of the read-out against control, counted positive when it falls) is -8% and the Z score turned out to be 0.75.
In the same order, the values of `NC(=O)COCC(=O)N1C[C@@H]2CC[C@@H](C2)C1` are -3% and 0.47.
With `COc1cc(CS(=O)(=O)Cc2scnc2C)ccc1Cl`, the “% Inhibition” value amounted to 2% and the Z score is given as -0.24.
Regarding `O=C(CCn1cncn1)NCC1(c2cccc(Br)c2)CCC1`, the “% Inhibition” value was -4% and the Z score was 0.55.
On to `CC1(C)CCCN1C(=O)c1cccc(S(=O)(=O)N2CCCc3ccccc32)c1`, for which the “% Inhibition” value stood at 1% and the Z score is recorded as -0.07.
In the same order, the values of `CC[C@@H](CNS(C)(=O)=O)Nc1ncc(F)c(-c2ccsc2)n1` are -4% and 0.65.
For `O=C(Nc1ccc(F)cc1)N1C[C@H]2CC[C@@H](C1)N(Cc1ccccn1)C2=O`, the “% Inhibition” value was -11% and the Z score stood at 2.17.
Turning to `CCC(=O)N1CCC[C@H](Oc2ncc(Cl)cn2)C1`, the “% Inhibition” value came out at 1% and the Z score was -0.17.
In the same order, the values of `Cc1ccc(Cl)cc1-n1ncc2c(Nc3ccc4c(c3)OCO4)ncnc21` are 2% and -0.24.
In the case of `O=C(O)c1ccccc1OCCN1CC[C@@H](C(F)(F)F)C2(CCOCC2)C1`, the “% Inhibition” value is listed as -7% and the Z score was 1.11.
In the same order, the values of `COc1cccc(CN2CCC[C@@](O)(CN3CCS(=O)(=O)CC3)C2=O)c1` are -1% and 0.1.
For `CCC(C)N(CCNC(=O)C1CCCN(c2nc3c(C)cc(C)cc3s2)C1)C1CCCCC1` (stereo unspecified), the “% Inhibition” value is listed as 10% and the Z score is -1.32.
In the same order, the values of `CC1(C)CN(S(=O)(=O)c2ccccc2)C[C@@H]2CN(C(=O)c3ccccc3F)CCN21` are 29% and -3.29.
In the same order, the values of `O=C(CCNC(=O)C1CCCCC1)Nc1ccccc1` are -2% and 0.41.
For the compound `CCCc1nc(C)c(CNC(=O)C2(N3CCOCC3)CCCCC2)s1`, the “% Inhibition” value is -15% and the Z score came to 1.45.
In the same order, the values of `O=C(NCC1CC1)C(=O)Nc1ccc2c(c1)C(=O)N(CC1CC1)C2=O` are -11% and 0.96.
With `C[C@@H](CN1CCCC1=O)NC(=O)Nc1ccc(F)c(NC(=O)C2CCCCC2)c1`, the “% Inhibition” value was found to be 3% and the Z score is recorded as -0.52.
In the same order, the values of `Cc1csc(-c2csc(Nc3cnccc3C)n2)c1` are 1% and -0.16.
As to `Cc1nnc(C(=O)Nc2ccc(C(=O)NCc3ccccn3)cc2)s1`, the “% Inhibition” value is recorded as -1% and the Z score stood at 0.13.
For `Cc1nnsc1CNC(=O)c1c[nH]nc1-n1cnnn1`, the “% Inhibition” value was determined as 6% and the Z score was -0.8.
In the same order, the values of `COc1ccccc1C(=O)Nc1ccc2c(c1)N(C(=O)c1ccccc1)CCC2` are -9% and 0.89.
In the same order, the values of `O=C(NCCCc1ccccc1)c1coc(CN2CCN(c3ncccn3)CC2)n1` are -19% and 3.53.
In the same order, the values of `O=C(O)[C@H]1CC[C@H](C(=O)Nc2ccsc2)CC1` are -5% and 1.
